Assay results taken from PubChem BioAssay AID1345083 (National Center for Advancing Translational Sciences (NCATS), 2018).
Hit rate of the full screen: of about 94,000 compounds, about 6,200 (6.6%) were called active. The inconclusive results got no clear call from the source; some entries with a clear call stand among them for comparison. Calls follow the shape of the dose curve; as a rule, active = well fitted inhibition curve with a large enough effect; inconclusive = small, poorly fitted or top-dose-only effect; inactive = flat fitted curve, though single readings scatter. Potencies of inconclusive entries are doubtful fits and often do not repeat.

Experiment: Cytotoxic Profiling in HEK 293 Cell Line of Diverse Libraries Using Quantitative High-Throughput Screening; also: nearly all actives have a fitted effect of over 60% in size
Conditions: HEK 293 viability, ATP luminescence (CellTiter-Glo), 48-72 h; series mostly up to 115 µM
In short: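 Read-out: CellTiter-Glo ATP luminescence. Cells: HEK 293, 250 cells/well. Exposure: 48 or 72 hr, 37 degree Celsius.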
Potency is read from the fitted curve at half-maximal effect; tags tell the direction and shape of the fitted curve.

| SMILES | Potency |
| --- | --- |
| CCCc1ncncc1C(=O)N1CCc2onc(-c3ccccc3F)c2C1 | inactive |
| O=S(=O)(c1ccc(F)cc1)N1CCC2(CC1)CC(OCC1CC1)CCO2 (configuration not stated) | inconclusive: 50.1 µM [inhibitor, partial curve, poor fit] |
| O=c1[nH]c2cccnc2n1C1CC1 | inactive |
| CC(C)[C@H]1NC(=O)[C@@H]2[C@@H](NC(=O)NC3CCCCC3)CCN2C1=O | inactive |
| COc1cccc2c1OCC(CNC(=O)CCc1cn3ccccc3n1)C2 (configuration not stated) | inactive |
| COc1cccc(CNC(=O)c2ccc3oc(-c4ccccn4)nc3c2)c1 | inconclusive: 70.8 µM [inhibitor, partial curve] |
| CC(C)(C)COC(=O)N1CC(=O)N(C2Cc3ccccc3C2)CC(O)C1 (configuration not stated) | inconclusive: 10 µM [inhibitor, full curve, poor fit] |
| COc1ccccc1Cn1c(=O)c(C(=O)N2CCN(C(=O)c3ccccc3C)CC2)nc2cccnc21 | inactive |
| Cc1cccc(NC(=O)N2CCCC(Cc3noc(C4CC4)n3)C2)c1 (configuration not stated) | inconclusive: 44.7 µM [inhibitor, partial curve] |
| COc1ccc(OCC2(C)COc3ccc(C(=O)N(C)Cc4ccccc4)cc3N2)cc1 (configuration not stated) | inconclusive: 100 µM [inhibitor, partial curve, poor fit] |
| COc1ccc2[nH]c3c(c2c1)CCNC31CCN(C(=O)c2ccc(OC)c(F)c2)CC1 | inconclusive: 10 µM [inhibitor, full curve, poor fit] |
| O=C(CN1CCNCC1)NCc1nc(-c2cccc(F)c2)c(-c2ccccn2)[nH]1 | inconclusive: 31.6 µM [inhibitor, full curve] |
| COc1cccc(CN2CCC(C(=O)N3CCCCCCNC(=O)CC3)CC2)c1 | inactive |
| COc1cccc(C(=O)N[C@@H]2CN(c3ccccn3)C[C@H]2CN(C)C)c1OC | inactive |
| COc1cccc(CNC(=O)c2cc(-c3ccc(F)cc3)nc3c2cnn3C)c1 | active: 28.2 µM |
| Cc1ccc(NC(=O)Nc2ccc(C)n(CC(=O)NC3CCCCC3)c2=O)cc1 | inconclusive: 50.1 µM [inhibitor, partial curve, poor fit] |
| O=C1OCC2(CCN(Cc3c[nH]c4ccccc34)C2)N1Cc1ccccc1 (configuration not stated) | inconclusive: 70.8 µM [inhibitor, partial curve, poor fit] |
| O=C1CC2(CCN(c3cnc4ccccc4n3)CC2)CN1CCCc1ccccc1 | active: 35.5 µM |
| CC1(C(=O)Nc2ccccc2)COCc2cnc(Nc3ccccc3)nc21 (configuration not stated) | active: 79.4 µM |
| CC(=O)Nc1ccc(CN(C)Cc2ccc(-c3ccccc3)cc2)cc1 | active: 79.4 µM |
| O=C(c1ccc(F)cc1)N1CCCC2(CN[S+](=O)([O-])c3cccnc3N2)C1 (configuration not stated) | inconclusive: 89.1 µM [inhibitor, single point] |
| CC(C)(O)c1cc(CC2(NCc3cnc4ccccc4c3)COC2)no1 | inconclusive: 50.1 µM [inhibitor, single point] |
| O[C@H]1CC[C@@H](Cc2cc(COc3ccccc3)on2)O[C@@H]1CNC1CCOCC1 | inactive |

| SMILES | Potency |
| --- | --- |
| Cc1ccc(-c2c(C(=O)N3CCOCC3)nc3sccn23)cc1 | inactive |
| CC(C)CNc1ccc2c(n1)C(C)(C(=O)NC1CCOCC1)CN(Cc1ccccc1)C2 (configuration not stated) | active: 79.4 µM |
| COc1ccc(C(=O)NC(C(=O)NC(C)C(C)C)C2CCN(C(=O)CC(C)(C)C)CC2)cc1 (configuration not stated) | inconclusive: 39.8 µM [inhibitor, full curve] |
| CCn1nc(C)c(C(=O)NC(C)c2cnc(-c3ccncc3)nc2C)c1C (configuration not stated) | inconclusive: 35.5 µM [inhibitor, partial curve, poor fit] |
| CCC(=O)N1CCC(=O)N(CC)C2(CCOCC2)C1 | inactive |
| COc1ccc(-c2nc(N3CCOCC3)cc3c2CN(Cc2ccccc2)C3=O)cc1OC | inconclusive: 44.7 µM [inhibitor, partial curve, poor fit] |
| O=C(NC1CCCN(c2cc(-c3ccccc3)[nH]n2)C1)c1ccc(Cl)cc1 (configuration not stated) | inconclusive: 56.2 µM [inhibitor, partial curve, poor fit] |
| COCCNC(=O)c1cc(-c2ccc(Cl)nc2)nc2c1cnn2C | inconclusive: 39.8 µM [inhibitor, partial curve, poor fit] |
| CC(=O)Nc1ccc(OCC(=O)NC2CCN(Cc3ccccc3)CC2)nc1 | inactive |
| COc1ccc(-c2cc(N3CCC(NC(=O)c4ccc(Cl)cc4)CC3)n[nH]2)cc1 | active: 44.7 µM |
| Cc1cc(C(=O)N2C[C@@H](COCC3CC3)[C@H](c3ccccn3)C2)c(C)o1 | inconclusive: 56.2 µM [inhibitor, partial curve, poor fit] |
| COC(=O)[C@@H]1Cc2ncn(C)c2CN1S(=O)(=O)c1ccc2ccccc2c1 | inactive |
| COc1ccc(CCNc2ncnc3c2CN(c2cccc(C)c2)C(=O)CN3C)cc1 | inconclusive: 50.1 µM [inhibitor, partial curve, poor fit] |
| COc1cccc(-c2cc(C3CCN(C(=O)Nc4cc(C)ccc4C)CC3)[nH]n2)c1 | inconclusive: 44.7 µM [inhibitor, partial curve, poor fit] |
| CC(C)CNC(=O)C1CCN(Cc2ccccc2-c2cccnc2)CC1 | inconclusive: 89.1 µM [inhibitor, partial curve] |
| CC1CCC2(CC1)NC(=O)N(CC(=O)Nc1cc(C(F)(F)F)ccc1Cl)C2=O (configuration not stated) | inactive |
| CCn1ccnc1C1CCN(C(=O)Cn2cccnc2=O)CC1 | inconclusive: 39.8 µM [inhibitor, single point] |
| O=C(NC1CCCC1)N1CCCN(c2ccc3nnc(-c4ccccc4)n3n2)CC1 | inactive |
| COc1ccccc1Nc1ccnc(N2CCN(C(=O)Nc3ccc(Cl)cc3)CC2)n1 | active: 39.8 µM |
| Cc1cn2nc(C(=O)NCc3ccc(C(C)C)cc3)cc2c(N2CCCC2)n1 | inconclusive: 100 µM [inhibitor, single point] |
| Cc1cccc(C)c1N1CC(OCc2cccc(C(=O)O)c2)c2ccccc2[S+]1(=O)[O-] (configuration not stated) | inactive |
| O=C1Nc2ccc(-c3ccccc3F)cc2C(=O)N2CCN(C(=O)C3CCCCC3)C[C@H]12 | inconclusive: 56.2 µM [inhibitor, partial curve, poor fit] |
| Cc1nn(-c2ccccc2)c2c1C(C(C)C)N(C1CCCN(C(=O)c3ccccc3F)C1)C2=O (configuration not stated) | active: 35.5 µM |

| SMILES | Potency |
| --- | --- |
| O=C(Nc1cccc(C(F)(F)F)c1)O[C@@H]1CO[C@H]2[C@@H]1OC[C@@H]2n1nnnc1SC1CCCC1 | inconclusive: 39.8 µM [inhibitor, full curve, poor fit] |
| COc1ccc(OC)c(S(=O)(=O)N2CCOCCNC(=O)[C@H]3CCCC[C@H]32)c1 | inactive |
| Cc1ccc(C2NC(=O)N(CC(=O)Nc3ccc(Br)c(C)c3)C3=C2C(=O)OC3)cc1 (configuration not stated) | inconclusive: 10 µM [inhibitor, full curve, poor fit] |
| Cc1noc2c(NC(C)C)cc(-c3cccnc3)nc12 | inactive |
| O=C(c1ccccc1)N1CCn2c(nnc2-c2ccc(Cl)cc2)C1 | inactive |
| CN(CC1(C)CCOCC1)C(=O)c1ccc2c(c1)OCO2 | inactive |
| CCOC(=O)c1ccc(NC(=O)N2Cc3[nH]cnc3C[C@H]2c2nc(-c3ccc4c(c3)OCO4)no2)cc1 | inconclusive: 35.5 µM [inhibitor, partial curve, poor fit] |
| CC(C)Oc1ccc2c(NC(=O)c3ncc(F)cc3F)nn(CC(F)(F)F)c2c1 | inconclusive: 39.8 µM [inhibitor, full curve, poor fit] |
| COc1ccc(-c2nc(-c3ccccc3)nc3c2CN(C(=O)c2ccccc2C)CC3)cc1 | inconclusive: 28.2 µM [inhibitor, full curve] |
| O=C(NCc1cccc(F)c1)C1CCN(C(=O)c2ncn3c2COC(c2ccccc2)C3)CC1 (configuration not stated) | inconclusive: 100 µM [inhibitor, partial curve, poor fit] |
| COc1ccc(-c2[nH]ncc2CN2CCCCCNC(=O)[C@@H]3CCC[C@@H]32)cc1 | inconclusive: 89.1 µM [inhibitor, single point] |
| Cc1ccc(C2Cn3nnc(C(=O)N4CCC(C(=O)NCc5cccc(F)c5)CC4)c3CO2)cc1 (configuration not stated) | inactive |
| Cc1ccc(-c2cccc(CN3CCCC(N[S+](C)(=O)[O-])C3)c2)cc1Cl (configuration not stated) | active: 22.4 µM |
| CC(=O)N1CCC(N2CC[C@@H](CO)N(C)c3nc(C)ccc3C2)CC1 | active: 79.4 µM |
| Oc1ccccc1CN1C[C@H](O)C[C@H]1c1nc(Cc2ccc(F)cc2Cl)no1 | inconclusive: 100 µM [inhibitor, partial curve] |
| CC1=NS(=O)(=O)N(C)C=C1C(=O)OCc1nc(-c2ccccc2Cl)no1 | inconclusive: 39.8 µM [inhibitor, partial curve, poor fit] |
| FC(F)(F)Oc1ccc(CN2CCOC[C@H](Oc3cccnc3)C2)cc1 | inconclusive: 63.1 µM [inhibitor, partial curve, poor fit] |
| CC(=O)NC1CCN(Cc2ccc(-c3ccsc3)cc2)C1 (configuration not stated) | inconclusive: 39.8 µM [inhibitor, partial curve, poor fit] |
| CCc1nc2c(=O)n(CC(=O)N3CCC(Cc4ccccc4)CC3)nc(C)c2s1 | inconclusive: 89.1 µM [inhibitor, single point] |
| CCn1nccc1C(=O)NCCc1ncc(C)n1Cc1ccccc1 | inconclusive: 79.4 µM [inhibitor, partial curve] |
| CCc1nc2c(=O)n(CC(=O)NCc3cc(C)ccc3C)nc(C)c2s1 | inactive |
